The test system of series [1] is HDAC1, HDAC4, SIRT1, cyclin A2 (CCNA2). Description: Western blot of protein deacetylases and cyclin A2 in HCT116 cells. Type of series: cell-based. To be noted: for Protein levels of HDAC1, HDAC4, SIRT1, cyclin A2 after miR-22 (mimic) transfection: HCT116 cells, 48 hours after transfection, vs. scramble control; for CYCLIN A2 levels: colon HCT116 cells, CDCA treatment or miR-22 mimic transfection. The method, then:
HCT116 cells were transfected with either an miR-22 mimic or a scramble control, and 48 hours later the protein levels of HDAC4, SIRT1, and cyclin A2 were measured (FIG. 3B). The expression of all three proteins was reduced by treatment with the miR-22 mimic.
Western blot and immunoprecipitation were performed as described previously^22. Specific antibodies used included anti-NUR77, RARβ, SIRT1, β-actin, and IgG (Santa Cruz Biotechnology, Santa Cruz, Calif.), phospho-JNK1/2, total JNK1/2, cleaved caspase3, HDAC1 and HDAC4 (Cell Signaling Technology, Beverly, Mass.), and CCNA2 (Novus Biologicals, Littleton, Colo.). To detect protein acetylation of NUR77 and RARβ, cell lysates (500 μg) were incubated with anti-NUR77, RARβ, or IgG antibody (1 μg), precipitated by adding Dynabeads (30 μl, Life Technologies, Carlsbad, Calif.), and probed with anti-Acetyl-lysine antibody (Cell Signaling Technology, Beverly, Mass.). To study the interaction between RARβ and NUR77, whole-cell lysates were precipitated with anti-RARβ or NUR77 antibody followed by Western blot using anti-NUR77 or RARβ antibody.

Another series has as its system 3′UTR of HDAC1. Description: psiCHECK2-HDAC1 3′UTR luciferase assay in HCT116 cells. Type of series: cell-based. To be noted: miR-22 mimics 20 nM, 24 hours after transfection. The method, then: Cells were also transfected with either miR-22 mimics or miR-22 inhibitors. Scramble controls were used as negative controls.
To establish miR-22 inhibition of HDAC1, in vitro functional assays were conducted using miR-22 mimics and inhibitors. psiCHECK2-HDAC1 containing the 3′UTR of HDAC1 was constructed and co-transfected with either miR-22 mimics or inhibitors into HCT116 cells. […] Together, HDAC1 is a novel miR-22 direct target, and miR-22 inhibits multiple protein deacetylases in colon cancer cells
Renilla luciferase activity was standardized to firefly luciferase activity.

The test system of another series is Huh7 and HCT116 cells. The conditions noted are these: cited from earlier work.
The test system of series [2] is CYCLIN A2, HDAC1, HDAC4, SIRT1. Description: Protein levels in Huh7 liver cancer cells.
Series [3] concerns NUR77 and RARβ. Description: Induction and localization of NUR77 and RARβ in HCT116 cells. It is filed as cell-based. To be noted: 48 hours, RA 10 μM, butyrate 5 mM, SAHA 5 μM, EGF 32 nM. The method, then:
Proteins were immunoprecipitated by anti-NUR77 or anti-RARβ antibodies, or IgG, followed by Western blot using anti-RARβ or anti-NUR77 antibodies.
To study the effect of miR-22 in induction of cytosolic NUR77 by RA/butyrate, adenoviral-delivery of miR-22 inhibitors tagged with green fluorescence (adeno-miR-22 inhibitor-GFP, Applied Biological Materials Inc, Richond, BC) were used to infect HCT116 cells. At 48 hours post adenoviral infection, cells were treated with RA (10 μM) plus butyrate (5 mM) or DMSO for 24 hours. […] Cells were mounted in ProLong® Gold Antifade Reagent with DAPI (4′,6-diamidino-2-phenylindole, Life Technologies, Carlsbad, Calif.) and imaged under Keyence BZ-9000 microscope.

Series [4] relates to NUR77 and RARβ. The experiment in a line: NUR77 and RARβ in Huh7 cells (immunoprecipitation, Western blot, staining). A general note: A western blot detects proteins with antibodies after separation by electrophoresis.

Read-outs that look alike come from different tables or passages of the source.

Take “miR-22 mimic: miR-22 mimics (Life Technologies), transfected at 20 nM (guide AAGCUGCCAGUUGAAGAACUGU; mimic duplex, passenger strand not given here)”: the “Protein levels of HDAC1, HDAC4, SIRT1, cyclin A2 after miR-22 (mimic) transfection” value in series [1] is “reduced”; in series [1] (listed as miR-22 mimics), “reduced the protein levels of HDAC4 and SIRT1”. Moreover, the “CYCLIN A2 levels” value is “repression of cyclin A2” in series [1], “reduced CYCLIN A2 levels” in series [1] (listed as miR-22 mimics), “repression of cyclin A2” in series [2] and “reduced CYCLIN A2 levels” in series [2] (listed as miR-22 mimics). Also, the “Inhibition of luciferase activity of psiCHECK2-HDAC1” value in the series on 3′UTR of HDAC1 is given as “roughly 30%”. Moreover, the “Number of G0/G1 cells” value with Huh7 and HCT116 cells is “increased the number of G0/G1 Huh7 and HCT116 cells”.

For EGF: epidermal growth factor, mitogen, the “Induction and localization of NUR77 and RARβ (immunostaining)” value in the series on NUR77 and RARβ [3] was “induced nuclear NUR77, but not RARβ”. In the series with NUR77 and RARβ [4], the “Nuclear NUR77 and cleaved caspase 3” value is recorded as “increased nuclear NUR77, but no cleaved caspase 3”.
